Measured values as given in publication PMC4336329 (PLoS ONE, 2015).
About 2,200 (0.71%) of roughly 310,000 compounds showed an effect of 50% or more. Effects have a minus sign here. The list shows a part of the results.

The compounds below were run against human ether-à-go-go-related gene (hERG) potassium channel (human, UniProt Q12809) (assay: primary screen, population patch clamp on CHO cells stably expressing hERG).
Sequence of human ether-à-go-go-related gene (hERG) potassium channel (Q12809 whole entry, looked up): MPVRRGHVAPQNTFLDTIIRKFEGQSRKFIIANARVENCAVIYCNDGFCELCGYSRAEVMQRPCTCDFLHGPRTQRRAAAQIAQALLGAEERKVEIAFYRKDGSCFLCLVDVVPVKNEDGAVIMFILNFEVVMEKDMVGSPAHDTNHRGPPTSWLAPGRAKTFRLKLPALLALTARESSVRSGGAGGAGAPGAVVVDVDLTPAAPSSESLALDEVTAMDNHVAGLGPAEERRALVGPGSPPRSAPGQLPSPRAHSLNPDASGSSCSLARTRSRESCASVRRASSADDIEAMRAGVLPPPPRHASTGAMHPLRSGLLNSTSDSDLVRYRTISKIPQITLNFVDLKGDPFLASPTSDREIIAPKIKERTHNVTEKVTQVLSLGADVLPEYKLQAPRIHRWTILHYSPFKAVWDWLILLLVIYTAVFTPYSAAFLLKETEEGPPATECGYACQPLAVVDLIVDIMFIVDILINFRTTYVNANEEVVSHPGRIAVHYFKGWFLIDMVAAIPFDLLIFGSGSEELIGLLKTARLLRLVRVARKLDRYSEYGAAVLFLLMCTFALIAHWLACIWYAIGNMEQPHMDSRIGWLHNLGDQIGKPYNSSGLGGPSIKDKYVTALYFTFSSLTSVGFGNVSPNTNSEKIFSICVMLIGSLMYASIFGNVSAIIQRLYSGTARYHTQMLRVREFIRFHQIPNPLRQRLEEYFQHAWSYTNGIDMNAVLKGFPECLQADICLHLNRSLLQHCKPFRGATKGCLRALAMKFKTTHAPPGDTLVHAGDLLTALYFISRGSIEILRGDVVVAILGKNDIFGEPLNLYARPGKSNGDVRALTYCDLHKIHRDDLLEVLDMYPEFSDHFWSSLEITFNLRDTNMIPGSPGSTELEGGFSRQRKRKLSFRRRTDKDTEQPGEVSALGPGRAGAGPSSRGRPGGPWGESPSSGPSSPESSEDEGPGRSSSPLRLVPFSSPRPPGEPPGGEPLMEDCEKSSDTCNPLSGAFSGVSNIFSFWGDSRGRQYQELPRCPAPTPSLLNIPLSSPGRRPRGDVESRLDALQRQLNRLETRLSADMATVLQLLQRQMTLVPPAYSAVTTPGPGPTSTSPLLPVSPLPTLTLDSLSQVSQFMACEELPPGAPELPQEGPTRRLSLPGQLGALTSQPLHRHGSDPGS

| SMILES | hERG current change (%, negative = inhibition) at 1uM [%] |
| --- | --- |
| Cc1csc(SC(C)c2nc3scc(-c4ccccc4)c3c(=O)[nH]2)n1 (stereo not drawn) | 7.31 |
| CCCCCc1nc2c(c3c1CCCC3)CCCC2 | -51.7 |
| O=C(COC(=O)C1CCN(S(=O)(=O)c2ccc3c(c2)OCCO3)CC1)NC1CCCCC1 | 1.18 |
| Nc1c(Cl)cc(NC(=O)c2ccccc2C(=O)O)cc1Br | 8.33 |
| O=c1[nH][nH]c2nc(C(F)(F)F)cc(C(F)(F)F)c12 | 5.11 |
| CSc1nc(NS(=O)(=O)c2cc(Br)ccc2Br)cc(=O)[nH]1 | 13.1 |
| COc1ccc(C2SCC(=O)N2c2c(C)n(C)n(-c3ccccc3)c2=O)c(OC)c1 (stereo not drawn) | 4.43 |
| CN(C)S(=O)(=O)c1cccc(NC(=O)c2cc(-c3cccs3)nn2-c2cccc(Cl)c2)c1 | 15.5 |
| CCOC(=O)COc1ccc(C(=O)Nc2cccc(Cl)c2C)cc1 | 11.7 |
| CCC(=O)Nc1cc(-c2nn3c(C)nnc3s2)ccc1C | 4.77 |
| CCOC(=O)N1CCN(C(=O)C2CCN(S(=O)(=O)c3cc(Cl)ccc3Cl)CC2)CC1 | -10.6 |
| CNC(=O)NC(=O)COC(=O)c1ccc(-n2c(C)ccc2C)cc1 | 7.3 |
| O=C(c1cc(C2CC2)nn1-c1ccccc1)N1CCN(c2ncc(C(F)(F)F)cc2Cl)CC1 | 1.64 |
| CCOc1ccc(CCNC(=O)COC(=O)c2cccc(S(=O)(=O)N3CCCC3)c2)cc1OCC | -6.27 |
| CCCn1ncc(C(=O)O)c1C | 2.04 |
| COC(=O)C1=C2SC(C)C(=O)N2C(N)=C(C#N)C1c1cc(OC)c(OC)c(OC)c1 (stereo not drawn) | -7.86 |
| CC(C)=CCc1c(O)cc2c(=O)c3ccc(O)cc3oc2c1O | 0.617 |
| CC(C)Cn1nc(NS(=O)(=O)c2ccccc2)c2cc3ccccc3nc21 | 6.86 |
| Cc1ccc(NC2c3ncccc3C(=O)N2Cc2ccco2)c(C)c1 (stereo not drawn) | 13.6 |
| CCC(C)c1ccc(O)c(NC(=O)c2cccnc2)c1 (stereo not drawn) | 7.46 |
| CCc1cccc(CC)c1NC(=O)CN1CCc2cc(OC)c(OC)cc2C1 | 10.5 |
| Cc1sc2c(=O)n3c(nc2c1C(=O)NC1CCCCC1)CCCCC3 | 9.42 |
| COc1cccc(NC(=O)CN(C)C(=O)c2cccnc2Sc2ccc(C)c(C)c2)c1 | 21 |

| SMILES | hERG current change (%, negative = inhibition) at 1uM [%] |
| --- | --- |
| O=C(c1ccccc1O)N1N=C(c2ccccc2)CC1(O)C(F)(F)F (stereo not drawn) | 1.54 |
| Cc1nnc(SCC(=O)Nc2sc3c(c2C(N)=O)CCC(C)C3)[nH]c1=O (stereo not drawn) | 10.6 |
| CN(C)C(=O)N1CCC(C(=O)NCc2ccccc2Cl)CC1 | 7.64 |
| COc1ccc(-c2csc(N(C)C(=O)c3cccs3)n2)cc1 | 9.66 |
| CCN(CC)c1ccc2cc(C(=O)NCc3ccc(F)cc3)c(=N)oc2c1 | 11.9 |
| Cc1cc(NC(=O)C23CCC(C)(C(=O)O2)C3(C)C)no1 (stereo not drawn) | 7.48 |
| Cc1ccc2cc(C(c3nnnn3C3CCCC3)N(Cc3ccco3)Cc3cccs3)c(=O)[nH]c2c1 (stereo not drawn) | 3.22 |
| O=C(c1ccccc1)c1ccc(C(=O)N2CCN(c3ccccc3)CC2)cc1 | -1.57 |
| CCOc1ccccc1OCCC(=O)N1CCN(S(=O)(=O)c2ccccc2[N+](=O)[O-])CC1 | 4.28 |
| Cc1ccc(-n2c(=O)[nH]c3c(C(N)=O)nc(CC(C)C)nc32)cc1 | 5.48 |
| Cc1c(Cl)ccc2c(C(=O)O)cc(-c3ccccc3)nc12 | 6.22 |
| CCOc1cc(N2CCOCC2)c(OCC)cc1NC(=O)Cc1ccccc1 | -0.537 |
| Cc1nc(Cl)sc1C(=O)O | 3.19 |
| CC(=O)O[C@H](CC(=O)O)C[N+](C)(C)C.[Cl-] | 11.2 |
| O=C(N=C1SC2CS(=O)(=O)CC2N1c1ccc(Cl)cc1Cl)C1CC1 (stereo not drawn) | -0.584 |
| COc1ccc(Cl)cc1NC(=S)NNC(=O)C1(C)CC1(Cl)Cl (stereo not drawn) | 1.4 |
| COC(=O)Cc1ccc(NC(=S)NCC(C)C)cc1 | -0.549 |
| CCOc1ccc(CN2CCNC(=O)C2CC(=O)NCCC2=CCCCC2)cc1 (stereo not drawn) | 20.9 |
| CC(C)C1Cc2ccccc2-c2[nH]c(=S)[nH]c(=O)c21 (stereo not drawn) | 9.71 |
| CC(=O)Nc1ccc(C(=O)NNS(=O)(=O)c2ccc(C)cc2)cc1 | 8.38 |
| Cc1ccc(Nc2nc(=O)c3cccnc3s2)c(Br)c1 | 8.22 |
| CCc1cc2ccccc2nc1SCC(=O)NC1CCCC1 | 12.1 |
